Experimental data taken from ChEMBL document CHEMBL4888484, “Replenishing the malaria drug discovery pipeline: Screening and hit evaluation of the MMV Hit Generation Library 1 (HGL1) against asexual blood stage Plasmodium falciparum ,using a nano luciferase reporter read-out” (2022).
The whole screen tested about 150,000 compounds, of which about 540 (0.36%) showed an effect of 50% or more. The list shows a part of the results.

System: Plasmodium falciparum
Test: Primary screen in NF54 nanoGlo assay, in single point, at 2uM, 72h; a lower Z score goes with more inhibition
Format: functional, Erythrocyte
Conditions: timepoint 72 hour

| Compound | % Inhibition [%] | Z score |
| --- | --- | --- |
| COc1cc(C(=O)O)cc(-c2ccc(C(=O)N3CCC[C@H](N(C)C)C3)cc2)n1 | -14 | 1.93 |
| O=C(CNC(=O)c1cccc(Cl)c1)NCCOCC(F)(F)C(F)F | 3 | -0.3 |
| COc1cc(C)c(NC(=O)N2CCc3cc(-c4ccccc4)oc3C2)cc1F | -7 | 0.81 |
| CCO[C@H]1C[C@@H](NC(=O)c2cnn(C3CCCCC3)c2C)C1 | -13 | 1.68 |
| Cc1ccc(CN2c3ccc(F)cc3OC[C@@H]2CC(=O)NCc2ccccc2)cc1 | -1 | 0.13 |
| Cc1cc(Cn2ccnc2-c2ccncc2)cc(C)n1 | -8 | 0.96 |
| O=C(O)[C@H]1C[C@@H]1C(=O)Nc1ccnn1C1CCCc2ccccc21 (stereo not given in full) | -10 | 2 |
| CNC(=O)[C@H]1CCN(S(=O)(=O)CCC2CCCC2)C1 | -3 | 0.53 |
| Nc1ccc(C(=O)N2CCNC2=O)cc1 | -12 | 1.08 |
| Cc1cc(C(=O)N2CCCCCC2)ccc1N(C)S(C)(=O)=O | -15 | 2.01 |
| COc1nc(C)ccc1-c1nnc([C@@H](C)CN2CCC(C)CC2)o1 | -12 | 1.56 |
| COc1ccc(C2=Nc3ncnn3/C2=N/Cc2ccccc2OC)cc1 | 3 | -0.39 |
| CC(C)CN1CCC(CN(C)C(=O)CC2(c3ccccc3)CC(=O)N(Cc3cccs3)C2=O)C1 (stereo not given) | 1 | -0.06 |
| Cc1nnccc1NC(=O)N[C@H](c1ccncc1)C1CC1 | 4 | -0.6 |
| O=C(O)[C@H]1CN(C(=O)Cc2ccccc2F)C[C@@H]1c1ccc2c(c1)OCO2 | -21 | 2 |
| O=C(N[C@H]1CCOC12CCCC2)c1cc(C2CC2)on1 | -4 | 0.68 |
| O=C(Nc1sccc1C(=O)O)c1ccc2c(c1)CCCC2 | -9 | 0.79 |
| COc1ccc(C2=CN(CC(=O)c3ccc(Cl)cc3)C3=CCCCCN23)cc1 | 37 | -3.83 |
| CCOC(=O)c1ccc(NC(=O)Cn2nc3ccc(C(=O)Nc4cccc(C)c4)cn3c2=O)cc1 | -24 | 2.13 |
| O=C(NCC[C@H]1CCCO1)NCc1csc(C2CC2)n1 | -8 | 1.07 |
| C[C@@H](CCCC(C)(C)O)NCc1cc2ccc(Cl)cc2n(CCOc2ccccc2)c1=O | -2 | 0.24 |
| CCOC1CC(CO)(NCc2cc(C#N)cs2)C1(C)C (stereo not given) | 1 | -0.24 |

| Compound | % Inhibition [%] | Z score |
| --- | --- | --- |
| COc1cc(C(=O)NCCn2nc(C)ccc2=O)ncn1 | 2 | -0.42 |
| CCNC(=NCc1noc(C(C)(C)C)n1)NCC | 1 | -0.1 |
| COc1ccccc1N1CCN(C(=O)c2cc3n(n2)[C@H](C(F)(F)F)C[C@H](c2ccco2)N3)CC1 | -6 | 0.72 |
| O=C(c1cc(Cl)ccc1F)N1CCCN(C2CCCCC2)CC1 | -11 | 2.03 |
| O=C([C@H]1CCCN(C(=O)N2CCc3sccc3C2)C1)N1CCc2[nH]ncc2C1 | 32 | -4.65 |
| CN(C(=O)C1CCS(=O)(=O)C1)C1CCCN(Cc2ccccc2)C1 (stereo not given) | -3 | 0.5 |
| COc1cc(C)ccc1C(=O)Nc1cccc2c1CCO2 | 2 | -0.24 |
| CCOc1cccc(CNc2ccc(C(=O)NC)cc2C)n1 | -13 | 1.42 |
| Cn1ccc2c(-c3ncccc3C(=O)N3C[C@@H]4CC[C@H]3C4)ccnc21 | -3 | 0.63 |
| O=C1CCC(c2ccccc2)(c2ccccc2)CN1CCCN1CCOCC1 | -6 | 1.03 |
| Cc1noc(C)c1CNC[C@H]1CN(C)CCO1 | -9 | 1.24 |
| O=C(N[C@H]1CC[C@@H](O)C1)c1ccc(-c2ccc3c(c2)OCCO3)s1 | -10 | 1.08 |
| CCN(CC)Cc1cnc2c(C(=O)N(C)C3Cc4ccccc4C3)cnn2c1 | -6 | 0.83 |
| CC(C(=O)OC(C)(C)C)N1[C@@H]2CC[C@H]1CN(C)CC2 (stereo not given in full) | -2 | 0.27 |
| O[C@H]1CN(Cc2ccccc2Cn2cccn2)C[C@@H]1F | -12 | 1.19 |
| CN(c1cnn(C)c1)S(=O)(=O)c1ccccc1 | -12 | 1.93 |
| COc1ccccc1N1CCN(c2ncccc2CNC(=O)[C@@H]2CCCO2)CC1 | -1 | 0.12 |
| Cc1ncc(NC(=O)N2CCC[C@](C)(c3ccccc3)CC2)cn1 | -6 | 0.93 |
| Cc1nnc(CN[C@@H](Cc2ccccc2)c2ccc(C)c(C)c2)o1 | 11 | -0.96 |
| CCN1CCN(Cc2nc(CC(C)C)nn2-c2ccc(OC)cc2)CC1 | -15 | 1.93 |
| Cc1noc(C)c1C(=O)NCc1ccccc1CN1CCOCC1 | -5 | 0.74 |
| Cc1ccc(N[C@@](C)(C(=O)NCCn2cncn2)c2ccccc2)cc1 | -18 | 2.36 |

| Compound | % Inhibition [%] | Z score |
| --- | --- | --- |
| Cc1[nH]nc2c1N[C@H](c1cc(F)ccc1Br)NC2=O | -18 | 2 |
| COC(=O)[C@@H](Cc1ccccc1)NC(=O)[C@H]1CCC(=O)N1C(=O)OCc1ccccc1 | 0 | -0.03 |
| CN(C1CCCC1)S(=O)(=O)c1ccc2c(c1)C(=O)Nc1ccccc1O2 | -12 | 1.71 |
| O=S(=O)(NCC1=CCCCC1)c1ccc(Cl)cc1 | 7 | -0.86 |
| CCNCc1ccc(Br)cc1 | -21 | 2.64 |
| O=C(Nc1cc(Cc2ccccc2)ccc1O)C1CCC(O)CC1 (stereo not given) | 6 | -0.65 |
| C[C@@](N)(C(=O)Nc1cc(F)ccc1O)C1CC1 | -4 | 0.76 |
| CC[C@H](C)CS(=O)(=O)N1CCC(O)(CC)CC1 | 28 | -3.51 |
| Cc1ccc(S(=O)(=O)N[C@H](C(=O)NC[C@H]2CC[C@H](C(=O)O)CC2)C(C)C)cc1 | -15 | 1.98 |
| O=C(Nc1cnn(C(F)F)c1)c1cc(C2CCCCC2)n[nH]1 | 2 | -0.48 |
| Cc1nn(C)c2nc(NC3CCN(CCN(C)C)CC3)sc12 | -2 | 0.29 |
| CC(C)(C)N(CCC#N)C(=O)c1cscn1 | -4 | 0.47 |
| Cc1cc2c(c(-c3nc(C)cnc3C)c1)O[C@@H](CN)C2 | -2 | 0.39 |
| Cc1ccc(CN2C[C@]34C=C[C@H](O3)[C@@H](C(=O)NCc3ccccc3Cl)[C@H]4C2=O)cc1 | -10 | 1.5 |
| O=C(CCc1nc(C2CCCC2)no1)Nc1cccc(-c2ncco2)c1 | -21 | 3.17 |
| O=C(c1cccc(C(F)(F)F)c1)N1C[C@@H]2C[C@H]1C[C@@H]2NS(=O)(=O)c1ccccc1 | 1 | -0.16 |
| N#Cc1cccnc1N1CCC(Oc2ccc3ncccc3c2)(C(=O)O)CC1 | 0 | 0.07 |
| C[C@H]1CN(S(=O)(=O)c2ccc3c(c2)CC(=O)N3)CCO1 | -5 | 0.67 |
| C[C@](O)(CNS(=O)(=O)Cc1ccccc1)C(c1ccccc1)c1ccccc1 | 28 | -3.72 |
| Cc1ccc(O)c(CNC2(c3c(F)cccc3F)CCC2)n1 | 1 | -0.18 |
| CC(=O)Nc1cccc(NC(=O)[C@H](Cc2ccccc2)Nc2nc(C)cc(C)n2)c1 | -13 | 1.66 |
| Cc1ccc(CCC(=O)N2CCc3nc[nH]c(=O)c3C2)c(C)c1 | -6 | 0.83 |

| Compound | % Inhibition [%] | Z score |
| --- | --- | --- |
| Cn1cc([C@H]2CCCN(C(=O)c3ccc4ncsc4c3)C2)cn1 | 5 | -0.68 |
| CCOCc1nc(C)cc(NCC2(O)CCC(C)(C)CC2)n1 | -2 | 0.19 |
| Cc1cc(C(=O)N(CCO)Cc2ccc(C)s2)cc(C)n1 | -14 | 2.21 |
| CCC(c1ccccc1)c1nc(C2CC(=O)N(c3ccccc3)C2)no1 (stereo not given) | 4 | -0.43 |
| Cc1ccc(CNC(=O)c2nnc(CS(=O)(=O)c3ccccc3)o2)cc1 | 16 | -2.44 |
| CCN(Cc1nc(-c2ccco2)no1)[C@H]1CCS(=O)(=O)C1 | -11 | 2.08 |
| Cc1nc(-c2cccnc2)nc(NCCNC(=O)C(C)(C)C)c1C | 31 | -0.47 |
| COCC1(CNC(=O)CN2C[C@@H]3CC[C@H]2C3)CCC1 | -6 | 1.08 |
| CN(CCC(=O)Nc1c(Cl)cccc1Cl)Cc1ccsc1 | 7 | -1.07 |
| CCNC(=O)CN(CC)CC(=O)Nc1cccc(CC)c1 | -3 | 0.39 |
| Cc1cc(F)cc(NC(=O)N2CCCN(C(=O)C(F)(F)F)CC2)c1 | -11 | 1.45 |
| CCOC(=O)c1cc(NC(=O)C(c2ccccc2)c2ccccc2)ccc1N1CCOCC1 | -7 | 0.81 |
| CN(C(=O)c1ccc(S(=O)(=O)N2CCOCC2)cc1)c1ncccn1 | -5 | 0.73 |
| CC(C)(C)c1csc(CNC2(CCO)CCOCC2)n1 | -2 | 0.2 |
| CCOc1cnc(-c2ccc(OC)cc2)[nH]1 | -28 | 3.31 |
| CC(C)c1cc(C(=O)N(C)C2C3CCOC3C2(C)C)cc(O)n1 (stereo not given) | 27 | -3.08 |
| O=C(CN1CCN(c2ccc(F)cc2)C1=O)NCc1cccs1 | -1 | 0.15 |
| COc1cc(OC)c(NC(=O)N2CCCCO2)cc1Br | -4 | 0.47 |
| Cc1cccc(OCC(=O)c2ccc3c(c2)N(C(C)C(=O)NCC2CCCO2)C(=O)CO3)c1C (stereo not given) | -8 | 1.55 |
